Some of the results follow.
Key:
Test in all cases: glycan array binding signal (z-score within array); higher = stronger binding
Conditions in all cases: glycan notation: IUPAC condensed, linker removed
Fuc(a1-2)Gal = target: Fuc(a1-2)Gal
Procedure, shortened: (§1)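 From the Consortium for Functional Glycomics database, 3228 arrays were curated, keeping only those whose protein sequence was available. Binding is given as a within-array Z-score averaged across arrays sharing a protein sequence and across linkers. Negative Z-scores can be read as non-binding.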

Fuc(a1-2)Gal(b1-3)GalNAc = target: Fuc(a1-2)Gal(b1-3)GalNAc
Procedure, shortened: as §1

[1] = target: Fuc(a1-2)Gal(b1-3)GalNAc(b1-3)Gal
Procedure, shortened: as §1

[2] = target: Fuc(a1-2)Gal(b1-3)GalNAc(b1-3)Gal(a1-4)Gal(b1-4)Glc
Procedure, shortened: as §1

[3] = target: Fuc(a1-2)Gal(b1-3)GalNAc(b1-3)Gal(b1-4)Glc
Procedure, shortened: as §1

[4] = target: Fuc(a1-2)Gal(b1-3)GalNAc(b1-4)[Neu5Ac(a2-3)]Gal(b1-4)Glc
Procedure, shortened: as §1

Fuc(a1-2)Gal(b1-3)GlcNAc = target: Fuc(a1-2)Gal(b1-3)GlcNAc
Procedure, shortened: as §1

[5] = target: Fuc(a1-2)Gal(b1-3)GlcNAc(b1-3)Gal(b1-4)Glc
Procedure, shortened: as §1

[6] = target: Fuc(a1-2)Gal(b1-3)[Fuc(a1-4)]GlcNAc
Procedure, shortened: as §1

Fuc(a1-2)Gal(b1-4)Glc = target: Fuc(a1-2)Gal(b1-4)Glc
Procedure, shortened: as §1

Fuc(a1-2)Gal(b1-4)GlcNAc = target: Fuc(a1-2)Gal(b1-4)GlcNAc
Procedure, shortened: as §1

[7] = target: Fuc(a1-2)Gal(b1-4)GlcNAc(b1-3)Gal(b1-4)GlcNAc
Procedure, shortened: as §1

[8] = target: Fuc(a1-2)Gal(b1-4)GlcNAc(b1-3)Gal(b1-4)GlcNAc(b1-3)Gal(b1-4)GlcNAc
Procedure, shortened: as §1

[9] = target: Fuc(a1-2)Gal(b1-4)[Fuc(a1-3)]GalNAc(b1-3)Gal(b1-4)[Fuc(a1-3)]GlcNAc
Procedure, shortened: as §1

[10] = target: Fuc(a1-2)Gal(b1-4)[Fuc(a1-3)]GalNAc(b1-3)Gal(b1-4)[Fuc(a1-3)]GlcNAc(b1-3)Gal(b1-4)[Fuc(a1-3)]GalNAc
Procedure, shortened: as §1

[11] = target: Fuc(a1-2)Gal(b1-4)[Fuc(a1-3)]GlcNAc
Procedure, shortened: as §1

[12] = target: Fuc(a1-2)Gal(b1-4)[Fuc(a1-3)]GlcNAc(b1-3)Gal(b1-4)[Fuc(a1-3)]GlcNAc
Procedure, shortened: as §1

[13] = target: Fuc(a1-2)Gal(b1-4)[Fuc(a1-3)]GlcNAc(b1-3)Gal(b1-4)[Fuc(a1-3)]GlcNAc(b1-3)Gal(b1-4)[Fuc(a1-3)]GlcNAc
Procedure, shortened: as §1

Fuc(a1-2)GlcNAc = target: Fuc(a1-2)GlcNAc
Procedure, shortened: as §1

Fuc(a1-2)[Gal(a1-3)]Gal = target: Fuc(a1-2)[Gal(a1-3)]Gal
Procedure, shortened: as §1

[14] = target: Fuc(a1-2)[Gal(a1-3)]Gal(b1-3)GlcNAc
Procedure, shortened: as §1

[15] = target: Fuc(a1-2)[Gal(a1-3)]Gal(b1-4)Glc
Procedure, shortened: as §1

[16] = target: Fuc(a1-2)[Gal(a1-3)]Gal(b1-4)GlcNAc
Procedure, shortened: as §1

[17] = target: Fuc(a1-2)[Gal(a1-3)]Gal(b1-4)[Fuc(a1-3)]GlcNAc
Procedure, shortened: as §1

[18] = target: Fuc(a1-2)[Gal(a1-4)]Gal(b1-4)GalNAc
Procedure, shortened: as §1

[19] = target: Fuc(a1-2)[Gal(a1-4)]Gal(b1-4)GlcNAc
Procedure, shortened: as §1

[20] = target: Fuc(a1-2)[GalNAc(a1-3)]Gal
Procedure, shortened: as §1

[21] = target: Fuc(a1-2)[GalNAc(a1-3)]Gal(b1-3)GlcNAc
Procedure, shortened: as §1

[22] = target: Fuc(a1-2)[GalNAc(a1-3)]Gal(b1-4)Glc
Procedure, shortened: as §1

[23] = target: Fuc(a1-2)[GalNAc(a1-3)]Gal(b1-4)GlcNAc
Procedure, shortened: as §1

[24] = target: Fuc(a1-2)[GalNAc(a1-3)]Gal(b1-4)[Fuc(a1-3)]GlcNAc
Procedure, shortened: as §1

[25] = target: Fuc(a1-2)[GalNAc(a1-4)]Gal(b1-4)GlcNAc
Procedure, shortened: as §1

[26] = target: Fuc(a1-2)[GalNAc(b1-3)]Gal
Procedure, shortened: as §1

Fuc(a1-3)GlcNAc = target: Fuc(a1-3)GlcNAc
Procedure, shortened: as §1

[27] = target: Fuc(a1-3)[Gal(b1-4)]GlcNAc
Procedure, shortened: as §1

[28] = target: Fuc(a1-3)[Gal(b1-4)]GlcNAc(b1-4)Gal(b1-4)[Fuc(a1-3)]GlcNAc
Procedure, shortened: as §1

[29] = target: Fuc(a1-3)[Gal(b1-4)]GlcNAc(b1-4)Gal(b1-4)[Fuc(a1-3)]GlcNAc(b1-4)Gal(b1-4)[Fuc(a1-3)]GlcNAc
Procedure, shortened: as §1

[30] = target: Fuc(a1-3)[Gal3S(b1-4)]GlcNAc
Procedure, shortened: as §1

[31] = target: Fuc(a1-3)[GalNAc(b1-4)]Gal(b1-4)GlcNAc
Procedure, shortened: as §1

[32] = target: Fuc(a1-3)[GalNAc(b1-4)]GlcNAc
Procedure, shortened: as §1

Fuc(a1-4)GlcNAc = target: Fuc(a1-4)GlcNAc
Procedure, shortened: as §1

Fuc(b1-3)GlcNAc = target: Fuc(b1-3)GlcNAc
Procedure, shortened: as §1

Gal(a1-2)Gal = target: Gal(a1-2)Gal
Procedure, shortened: as §1

Gal(a1-3)Gal = target: Gal(a1-3)Gal
Procedure, shortened: as §1

Gal(a1-3)Gal(b1-3)Glc = target: Gal(a1-3)Gal(b1-3)Glc
Procedure, shortened: as §1

Gal(a1-3)Gal(b1-3)GlcNAc = target: Gal(a1-3)Gal(b1-3)GlcNAc
Procedure, shortened: as §1

Gal(a1-3)Gal(b1-4)Glc = target: Gal(a1-3)Gal(b1-4)Glc
Procedure, shortened: as §1

Gal(a1-3)Gal(b1-4)GlcNAc = target: Gal(a1-3)Gal(b1-4)GlcNAc
Procedure, shortened: as §1

[33] = target: Gal(a1-3)Gal(b1-4)[Fuc(a1-3)]GalNAc
Procedure, shortened: as §1

[34] = target: Gal(a1-3)Gal(b1-4)[Fuc(a1-3)]GlcNAc
Procedure, shortened: as §1

Gal(a1-3)GalNAc = target: Gal(a1-3)GalNAc
Procedure, shortened: as §1

Gal(a1-3)GlcNAc = target: Gal(a1-3)GlcNAc
Procedure, shortened: as §1

[35] = target: Gal(a1-3)[Gal(a1-4)]Gal(b1-4)GlcNAc
Procedure, shortened: as §1

Gal(a1-4)Gal(b1-4)Gal = target: Gal(a1-4)Gal(b1-4)Gal
Procedure, shortened: as §1

Gal(a1-4)Gal(b1-4)GalNAc = target: Gal(a1-4)Gal(b1-4)GalNAc
Procedure, shortened: as §1

Gal(a1-4)Gal(b1-4)Glc = target: Gal(a1-4)Gal(b1-4)Glc
Procedure, shortened: as §1

Gal(a1-4)Gal(b1-4)GlcNAc = target: Gal(a1-4)Gal(b1-4)GlcNAc
Procedure, shortened: as §1

Gal(a1-4)GlcNAc = target: Gal(a1-4)GlcNAc
Procedure, shortened: as §1

Gal(a1-6)Glc = target: Gal(a1-6)Glc
Procedure, shortened: as §1

Gal(b1-2)Gal = target: Gal(b1-2)Gal
Procedure, shortened: as §1

B1: T7P4 (Tuber borchii) (protein)
chain: GSHIGPYMSFYASSEDVRTIEEGGRTWLVGRARRADGSWQDIKLDLDNIIGNRDGHLTWGEQNFTQSASDIRFNFEGSNVPVLRAKLRNAAGGEQESDLNLGERLTNNNGDLVFN
Fuc(a1-2)Gal
  glycan array binding signal (z-score): -0.218
Fuc(a1-2)Gal(b1-3)GalNAc
  glycan array binding signal (z-score): -0.208
[1]
  glycan array binding signal (z-score): -0.209
[2]
  glycan array binding signal (z-score): -0.076
[3]
  glycan array binding signal (z-score): 6.04
[4]
  glycan array binding signal (z-score): -0.22
Fuc(a1-2)Gal(b1-3)GlcNAc
  glycan array binding signal (z-score): -0.183
[5]
  glycan array binding signal (z-score): 5.88
[6]
  glycan array binding signal (z-score): -0.218
Fuc(a1-2)Gal(b1-4)Glc
  glycan array binding signal (z-score): -0.222
Fuc(a1-2)Gal(b1-4)GlcNAc
  glycan array binding signal (z-score): -0.207
[7]
  glycan array binding signal (z-score): -0.191
[8]
  glycan array binding signal (z-score): -0.209
[9]
  glycan array binding signal (z-score): -0.212
[10]
  glycan array binding signal (z-score): -0.213
[11]
  glycan array binding signal (z-score): -0.219
[12]
  glycan array binding signal (z-score): -0.212
[13]
  glycan array binding signal (z-score): -0.213
Fuc(a1-2)GlcNAc
  glycan array binding signal (z-score): -0.215
Fuc(a1-2)[Gal(a1-3)]Gal
  glycan array binding signal (z-score): -0.218
[14]
  glycan array binding signal (z-score): -0.22
[15]
  glycan array binding signal (z-score): -0.121
[16]
  glycan array binding signal (z-score): -0.221
[17]
  glycan array binding signal (z-score): -0.214
[18]
  glycan array binding signal (z-score): -0.078
[19]
  glycan array binding signal (z-score): -0.082
[20]
  glycan array binding signal (z-score): 0.011
[21]
  glycan array binding signal (z-score): -0.222
[22]
  glycan array binding signal (z-score): -0.128
[23]
  glycan array binding signal (z-score): -0.211
[24]
  glycan array binding signal (z-score): -0.22
[25]
  glycan array binding signal (z-score): -0.22
[26]
  glycan array binding signal (z-score): -0.169
Fuc(a1-3)GlcNAc
  glycan array binding signal (z-score): -0.027
[27]
  glycan array binding signal (z-score): -0.179
[28]
  glycan array binding signal (z-score): -0.02
[29]
  glycan array binding signal (z-score): -0.198
[30]
  glycan array binding signal (z-score): -0.217
[31]
  glycan array binding signal (z-score): -0.022
[32]
  glycan array binding signal (z-score): -0.027
Fuc(a1-4)GlcNAc
  glycan array binding signal (z-score): -0.222
Fuc(b1-3)GlcNAc
  glycan array binding signal (z-score): -0.115
Gal(a1-2)Gal
  glycan array binding signal (z-score): -0.218
Gal(a1-3)Gal
  glycan array binding signal (z-score): -0.214
Gal(a1-3)Gal(b1-3)Glc
  glycan array binding signal (z-score): -0.222
Gal(a1-3)Gal(b1-3)GlcNAc
  glycan array binding signal (z-score): -0.193
Gal(a1-3)Gal(b1-4)Glc
  glycan array binding signal (z-score): -0.222
Gal(a1-3)Gal(b1-4)GlcNAc
  glycan array binding signal (z-score): -0.221
[33]
  glycan array binding signal (z-score): -0.207
[34]
  glycan array binding signal (z-score): -0.208
Gal(a1-3)GalNAc
  glycan array binding signal (z-score): -0.216
Gal(a1-3)GlcNAc
  glycan array binding signal (z-score): -0.215
[35]
  glycan array binding signal (z-score): -0.171
Gal(a1-4)Gal(b1-4)Gal
  glycan array binding signal (z-score): 0.23
Gal(a1-4)Gal(b1-4)GalNAc
  glycan array binding signal (z-score): -0.172
Gal(a1-4)Gal(b1-4)Glc
  glycan array binding signal (z-score): 0.218
Gal(a1-4)Gal(b1-4)GlcNAc
  glycan array binding signal (z-score): -0.173
Gal(a1-4)GlcNAc
  glycan array binding signal (z-score): -0.219
Gal(a1-6)Glc
  glycan array binding signal (z-score): -0.214
Gal(b1-2)Gal
  glycan array binding signal (z-score): -0.226
